# Measurements reported in article PMC4336329 (PLoS ONE, 2015).
# Screen size: about 310,000 compounds; about 2,200 (0.71%) showed an effect of 50% or more. Effects have a minus sign here. The list shows a part of the results.
# Biological target: human ether-à-go-go-related gene (hERG) potassium channel (human, UniProt Q12809)
# Experiment: primary screen, population patch clamp on CHO cells stably expressing hERG
# Sequence of human ether-à-go-go-related gene (hERG) potassium channel (Q12809 whole entry, looked up): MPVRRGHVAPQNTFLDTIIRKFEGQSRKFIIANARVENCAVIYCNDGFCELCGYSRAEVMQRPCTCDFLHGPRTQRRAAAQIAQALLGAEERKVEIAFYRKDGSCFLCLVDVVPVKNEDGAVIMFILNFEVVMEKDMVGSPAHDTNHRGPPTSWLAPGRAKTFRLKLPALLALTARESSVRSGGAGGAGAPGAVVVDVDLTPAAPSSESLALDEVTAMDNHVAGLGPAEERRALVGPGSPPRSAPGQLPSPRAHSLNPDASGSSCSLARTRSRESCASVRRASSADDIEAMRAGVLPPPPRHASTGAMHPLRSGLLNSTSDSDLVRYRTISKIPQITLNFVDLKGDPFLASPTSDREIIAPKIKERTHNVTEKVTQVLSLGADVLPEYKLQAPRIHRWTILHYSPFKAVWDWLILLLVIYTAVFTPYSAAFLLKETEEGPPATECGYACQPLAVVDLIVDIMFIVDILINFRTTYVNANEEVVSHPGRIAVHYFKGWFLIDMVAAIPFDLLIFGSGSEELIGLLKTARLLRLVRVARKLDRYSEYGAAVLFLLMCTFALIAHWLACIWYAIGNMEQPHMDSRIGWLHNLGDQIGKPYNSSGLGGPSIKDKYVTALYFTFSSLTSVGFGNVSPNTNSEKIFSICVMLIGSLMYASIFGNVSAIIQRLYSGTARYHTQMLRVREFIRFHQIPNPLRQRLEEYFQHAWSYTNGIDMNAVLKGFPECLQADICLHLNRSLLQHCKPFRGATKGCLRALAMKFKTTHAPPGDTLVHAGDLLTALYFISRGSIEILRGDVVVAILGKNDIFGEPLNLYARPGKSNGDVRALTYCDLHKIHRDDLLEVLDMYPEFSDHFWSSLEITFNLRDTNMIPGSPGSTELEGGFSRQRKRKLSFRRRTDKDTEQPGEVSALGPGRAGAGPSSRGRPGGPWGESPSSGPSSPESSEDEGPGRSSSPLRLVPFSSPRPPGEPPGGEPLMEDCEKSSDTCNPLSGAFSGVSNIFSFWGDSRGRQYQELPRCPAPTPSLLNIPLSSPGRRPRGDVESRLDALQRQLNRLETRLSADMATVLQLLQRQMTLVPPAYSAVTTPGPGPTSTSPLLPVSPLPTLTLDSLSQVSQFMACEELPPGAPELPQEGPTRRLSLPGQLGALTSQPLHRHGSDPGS
row,Compound,"hERG current change (%, negative = inhibition) at 1uM"
1,O=C(NC1CCCC1)c1ccc(COCC(F)(F)C(F)F)o1,-5.82%
2,O=C(NCC(=O)N(c1ccc(F)cc1)C(C(=O)NCC1CCCO1)c1ccccc1)c1ccco1 (stereo not shown),0.696%
3,CC(C)NC(=S)n1cc(C(=O)c2cc(Cl)cc(Cl)c2O)cn1,14%
4,COC(=O)C1CCCCN1C(=O)c1cc(COc2cccc3cccnc23)on1 (stereo not shown),9.55%
5,O=C(COC(=O)c1ccc(F)cc1F)Nc1cccnc1Cl,-24%
6,CCc1ccc(C2=NN(CCC(=O)NC(C)c3ccc4c(c3)OCCO4)C(=O)CC2)cc1 (stereo not shown),2.13%
7,CC(C)c1ccc(O)c(N)c1,3.43%
8,COc1ccc(OC)c(S(=O)(=O)n2ccc(C)n2)c1,9.44%
9,CCC1C2CN(C(C)=O)CC=C2C(C#N)=C(N)C1(C#N)C#N (stereo not shown),9.49%
10,O=C(COC(=O)/C=C/c1cnc2ccccc2n1)NCC(F)(F)F,14%
11,O=C(COC(=O)c1cc2ccccc2oc1=O)Nc1ccc(F)cc1F,2.58%
12,CCN(CC)CCn1c(=N)n(CC(O)c2ccco2)c2ccccc21.Cl (stereo not shown),-54.6%
13,O=S(c1ccsc1)c1ccsc1,5.18%
14,COc1ccc(OCCSc2nc3ccccc3c(=O)[nH]2)cc1,10%
15,CCOC(=O)C1=C(CN2CCN(CCC#N)CC2)NC(=O)NC1c1ccc2c(c1)OCO2 (stereo not shown),-7.21%
16,CCCN(C(=O)c1cccc(S(=O)(=O)N2CCN(Cc3ccccc3)CC2)c1)C1CCS(=O)(=O)C1 (stereo not shown),0.396%
17,CC(C)(CNC(=O)COc1ccccc1Cc1ccccc1)N1CCOCC1,-3.46%
18,C=CCOc1cccc(C2/C(=C(/O)c3ccccc3)C(=O)C(=O)N2CCN2CCOCC2)c1 (stereo not shown),5.04%
19,COc1ccc(N(CC(=O)Nc2ccc(F)c(F)c2)S(=O)(=O)c2c(C)[nH]c(=O)[nH]c2=O)cc1,13.3%
20,O=C(CSc1ccc(-c2ccco2)nn1)Nc1cccc(F)c1,-1.42%
21,CN(CC(=O)Nc1ccc(F)c(F)c1F)C(=O)c1ccc2c(c1)S(=O)(=O)N=C1CCCCCN12,-2.65%
22,COc1cc(OC)cc(C(=O)OCC(=O)Nc2ccc3[nH]c(=O)[nH]c3c2)c1,-2.64%

row,Compound,"hERG current change (%, negative = inhibition) at 1uM"
1,CCOc1ccccc1OCC(=O)Nc1cccc(S(=O)(=O)N2CCCCCC2)c1,-4.09%
2,O=C(COC(=O)c1ncc(Cl)c(Cl)c1Cl)Nc1ccc(Cl)cn1,-35.7%
3,CCC(=O)C1CCCN(C(=O)CCc2nnc(-c3ccc4c(c3)OCO4)o2)C1 (stereo not shown),8.58%
4,Cc1ccc(C(=O)/C=C/N(C)C)o1,16.9%
5,CC(=O)NCCc1cc2ccc(C)c(C)c2[nH]c1=O,15.4%
6,C(=N\Nc1nc2ccccc2[nH]1)/c1ccc2c(c1)OCCO2,10.5%
7,COc1ccc(Cl)cc1NC(=S)N1CCN(C(=O)C2CCCO2)CC1 (stereo not shown),14.3%
8,CSc1cc(-c2ccccc2)n(Cc2c(Cl)cccc2Cl)c(=O)c1C#N,9.64%
9,O=C(Nc1cccc(Cl)c1)OCCOc1ccccc1,17.4%
10,CCOC(=O)c1nnn(-c2nonc2N)c1-c1ccc(F)cc1,13.5%
11,Cc1cccc(NC(=S)N2CCC(N(C)CC3CCCO3)CC2)c1C (stereo not shown),-3.88%
12,Cc1nn(-c2ccc(C(=O)N3CCN(S(=O)(=O)c4ccccc4C(F)(F)F)CC3)cc2)c(C)c1Cl,-6.83%
13,S=C(NCc1ccccc1)NC1CCSc2ccccc21 (stereo not shown),15.8%
14,Cc1cc(NN)nc(Cc2ccccc2)n1,10.1%
15,Cc1cc(OCC(O)CN2CCc3ccccc3C2)cc(C(C)C)c1.Cl (stereo not shown),-32%
16,O=C(NCC1CCCO1)c1ccc2c(=O)n(CCc3ccccc3)c(=O)[nH]c2c1 (stereo not shown),1.47%
17,Cc1c(NC(=O)c2cc3nc(-c4ccc(Cl)cc4)cc(C(F)(F)F)n3n2)c(=O)n(-c2ccccc2)n1C,-4.1%
18,CCCCSCCCNC(=O)CS(=O)Cc1nc(-c2cccc(C)c2)oc1C (stereo not shown),-2.44%
19,CCN1/C(=C/C(C)=O)Sc2ccc(OC)cc21,0.528%
20,CCOC(=O)C1(Cc2cccc(OC)c2)CCN(Cc2csc(C(C)=O)c2)CC1,-0.373%
21,C/C(=N/Oc1nc(C)cc(C)n1)c1ccc(Br)cc1,7.09%
22,O=C(COC(=O)/C=C/c1ccc(OC(F)F)cc1)NC1CCCCC1,11.2%

row,Compound,"hERG current change (%, negative = inhibition) at 1uM"
1,Cc1csc(SCC(=O)Nc2cccc(C)c2C)n1,2.96%
2,COc1ccc(NS(=O)(=O)c2ccc(C)c(C(=O)NCCCN3CCCC3=O)c2)cc1,11.1%
3,CCCCn1c(N)c(N(CC(C)C)C(=O)CSc2nnc(-c3ccc(Cl)cc3)o2)c(=O)[nH]c1=O,13.9%
4,Cc1cccc(NC(=O)CSc2nc3nc(C)cc(C)c3c(=O)[nH]2)c1,11.3%
5,CCOC(=O)c1ccc(NC(=S)Nc2ccc(C)cc2)cc1,15.6%
6,COc1ccc(C(=O)NC(C)CCc2ccccc2)c(O)c1 (stereo not shown),11.3%
7,NS(=O)(=O)c1cccc(NC(=O)c2cc(=O)c3ccccc3o2)c1,12.3%
8,CCCCn1c(N)nc2ccccc21.Cl,9.74%
9,CC(=O)OCC1OC(OC(C)=O)C(NC(=O)Cc2ccccc2)C(OC(C)=O)C1OC(C)=O (stereo not shown),6.06%
10,Cn1cnnc1SCC(=O)c1ccc2c(c1)CCCC2,4.38%
11,CCOC(=O)CS(=O)(=O)c1ccccc1,9.04%
12,Cc1ccc(C(=O)NCCSc2ccc(Cl)cc2)cc1S(=O)(=O)Nc1ccccc1,15.5%
13,CCOc1ccccc1OCCCNCc1ccco1.O=C(O)C(=O)O,8.14%
14,Cc1ccc(CN2CCSc3ccc(C(=O)NC4CCN(Cc5ccccc5)CC4)cc32)cc1,9.23%
15,O=C(/C=C/c1cccs1)NC(=S)NNC(=O)c1ccccc1O,21.8%
16,O=C(Cc1ccc(Cl)cc1)NCC(=O)N1CCCCC1,5.51%
17,Cc1cc(C)c(S(=O)(=O)c2ccccc2)c(OC(=O)c2c(F)cccc2F)n1,-2.45%
18,CC(=O)c1ccc(NC(=O)C2CCCN2S(=O)(=O)c2ccc(C)cc2)cc1 (stereo not shown),7.05%
19,O=C(CN1C(=O)c2ccccc2S1(=O)=O)N1CCN(c2ccccc2F)CC1,7.97%
20,O=C(C1CCC(=O)N1C1CCCCC1)N1CCC2(CC1)OCCO2 (stereo not shown),13.2%
21,CC1(C)CC(=O)/C(=C(\O)c2ccccc2)C(=NCCO)C1,11.9%
22,CC(=O)c1ccc(S(=O)(=O)NC2CC(=O)N(c3ccc(Cl)cc3)C2)cc1 (stereo not shown),0.55%

row,Compound,"hERG current change (%, negative = inhibition) at 1uM"
1,CCOc1cc(/C=N/NC(=O)C(=O)NC2CC2)cc(Br)c1O,10.4%
2,Cc1ccsc1C(=O)N(c1nc2ccccc2s1)c1c(C)cccc1C,23.7%
3,CCOC(=O)N1CCN(C(=O)c2cc3cc(Br)ccc3oc2=O)CC1,-7.29%
4,Cc1ccc(C(=O)c2c3ccc([N+](=O)[O-])cc3[n+]([O-])n2CCC(N)=O)cc1,-10.2%
5,O=C(Cn1c(=O)[nH]c2sc3c(c2c1=O)CCCC3)NCC1CCCO1 (stereo not shown),13.4%
6,Cc1nc(-c2ccc(Cl)cc2)sc1C1(C)CC(c2ccccc2Br)=NO1 (stereo not shown),17.2%
7,O=C(Nc1c(Cl)cc(Cl)cc1-c1nc2ccccc2s1)c1ccc(Br)o1,3.08%
8,COc1ccc(OC)c(/C=C/C(=O)N2CCCc3ccccc32)c1,13.6%
9,Cc1ccccc1-n1c(=O)c2c(n3cnnc13)-c1ccccc1CC21CCCCC1,7.92%
10,CCC(C)(C(=O)NC1CCCC1)N(Cc1ccco1)C(=O)c1ccccn1 (stereo not shown),2.89%
11,COc1ccc(NC(=O)CN(C)C(=O)CCSc2ccc(C)cc2)cc1,2.77%
12,Cc1nc(-c2cccc(Br)c2)ccc1C(=O)O,13%
13,Cn1c(CCC(=O)OCC(=O)NCc2ccc3c(c2)OCO3)nc(=O)c2ccccc21,16.2%
14,COc1ccc(C(CNC(=O)c2cccc(S(=O)(=O)Nc3ccccc3OC)c2)N2CCCC2)cc1 (stereo not shown),-4.37%
15,C[C@H](NC(=O)N1CCn2c1nc1ccccc12)C(=O)NCCc1ccccc1,17.4%
16,COc1ccc(-c2cc3ccc(OCC(N)=O)cc3oc2=O)cc1OC,11.5%
17,COc1ccc2nc3c(cc2c1)c(NC(=O)CC(C)C)nn3CC(C)C,14.7%
18,COc1cccc(C(=O)OCC(=O)c2c[nH]c3ccccc23)c1O,9.62%
19,Cc1cc(C)c(S(=O)(=O)N2CCN(C(=O)CCn3nc(C)c(C)c3C)CC2)c(C)c1,-0.0132%
20,O=S(=O)(Nc1ccc2ccccc2n1)c1ccc2c(c1)CCO2,11.2%
21,CCOC(=O)Nc1sc(NS(=O)(=O)c2ccc(C)cc2)nc1C,6.6%
22,Cc1c(Cl)c([N+](=O)[O-])nn1Cc1ccc(C(=O)N/N=C\c2cccc(Br)c2)o1,7.39%
